IC50 is the fitted dose that halves viability relative to control wells, and lower means more sensitive; a limit (>, <) means that the fit lies beyond the doses tested. AUC is the area under the same curve over the 256-fold range up to the top dose, as a fraction; it is 1 without any effect and falls as sensitivity rises. For part of these data: Where the top dose is marked as inferred, it comes from the curve model; the source does not state it.
Key:
Test in all cases: Viability of human cancer cell lines after 72 h of drug (GDSC screen)
[1] = compound: C=CC(=O)Nc1cc(-n2c(=O)ccc3cnc4ccc(-c5ccc(NS(C)(=O)=O)cc5)cc4c32)ccc1C [BMX-IN-1 (QL-XII-61)]; details: top dose 10 µM; top dose inferred
Method: (§1)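 Human cancer cell lines in 384-well plates, medium with 10% serum, drug for 72 h over a 256-fold dose range (nine 2-fold or five 4-fold steps up to the top dose). Adherent lines were fixed and stained with the nucleic acid dye Syto60, suspension lines read with resazurin; signal relative to control wells, capped at 0 and 100%. One two-parameter sigmoid per drug and line, fitted in a mixed model over all curves with the slope shared within a line.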

[2] = compound: CCc1cc(-c2n[nH]c(C)c2-c2ccc3c(c2)OCCO3)c(O)cc1O [CCT018159]; details: top dose 10 µM; top dose inferred
Method: as §1

[3] = compound: CN(C)Cc1cccc(N=C(c2ccccc2)c2c(O)[nH]c3cc(C(=O)N(C)C)ccc23)c1 [BIX02189]; details: top dose 20 µM; top dose inferred
Method: as §1

[4] = compound: COC(=O)CNC(=O)C(=O)OC [Dimethyloxalylglycine]; details: top dose 4000 µM; top dose inferred
Method: as §1

[5] = compound: COc1cccc2c1C(=O)c1c(O)c3c(c(O)c1C2=O)C[C@@](O)(C(=O)CO)C[C@@H]3O[C@H]1C[C@H](N)[C@H](O)[C@H](C)O1 [Doxorubicin]; details: top dose 1.024 µM
Method: as §1

[6] = compound: COc1cccc2cc(-c3nc([C@H]4CC[C@H](C(=O)O)CC4)n4ncnc(N)c34)[nH]c12 [OSI-027]; details: top dose 20 µM
Method: as §1

[7] = compound: CS(=O)(=O)c1ccc(C(=O)Nc2ccc(Cl)c(-c3ccccn3)c2)c(Cl)c1 [Vismodegib]; details: top dose 10 µM; top dose inferred
Method: as §1

[8] = compound: Cc1cnc(Nc2ccc(F)cc2Cl)nc1-c1c[nH]c(C(=O)N[C@H](CO)c2cccc(Cl)c2)c1 [VX-11e]; details: top dose 5.12 µM; top dose inferred
Method: as §1

[9] = compound: Cc1cnc(Nc2ccc(OCCN3CCCC3)cc2)nc1Nc1cccc(S(=O)(=O)NC(C)(C)C)c1 [TG101348]; details: top dose 10.24 µM
Method: as §1

[10] = compound: O=C(c1ccc(C(=O)N2CCC(N3CCCC3)CC2)c(Nc2ccccc2)c1)N1CCC(N2CCCC2)CC1 [UNC1215]; details: top dose 1 µM; top dose inferred
Method: as §1

[11] = compound: C=CCNC1=C2C[C@@H](C)C[C@H](OC)[C@H](O)[C@@H](C)/C=C(\C)[C@H](OC(N)=O)[C@@H](OC)/C=C\C=C(/C)C(=O)NC(=CC1=O)C2=O [17-AAG]; details: top dose 1 µM
Method: as §1

Cell Line | AUC [1] | IC50 [1] [µM] | AUC [2] | IC50 [2] [µM] | AUC [3] | IC50 [3] [µM] | AUC [4] | IC50 [4] [µM] | AUC [5] | IC50 [5] [µM] | AUC [6] | IC50 [6] [µM] | AUC [7] | IC50 [7] [µM] | AUC [8] | IC50 [8] [µM] | AUC [9] | IC50 [9] [µM] | AUC [10] | IC50 [10] [µM] | AUC [11] | IC50 [11] [µM]
ABC-1 (lung adenocarcinoma, adherent) | 0.958 | > 10 | 0.98 | > 10 | 0.961 | > 20 | 0.602 | 504 | 0.519 | 0.0727 | 0.338 | 0.402 | 0.983 | > 10 | 0.88 | > 5.12 | 0.913 | > 10.2 | 0.979 | > 1 | – | –
BB65-RCC (kidney, adherent) | 0.929 | > 10 | 0.892 | > 10 | 0.963 | > 20 | 0.679 | 861 | 0.501 | 0.0646 | 0.695 | 4.83 | 0.976 | > 10 | 0.964 | > 5.12 | 0.9 | > 10.2 | 0.978 | > 1 | – | –
COLO-829 (melanoma, adherent) | 0.972 | > 10 | 0.905 | > 10 | 0.972 | > 20 | 0.408 | 124 | 0.83 | > 1.02 | 0.401 | 0.589 | – | – | 0.858 | > 5.12 | 0.927 | > 10.2 | 0.964 | > 1 | – | –
DMS-53 (small cell lung carcinoma, adherent) | 0.987 | > 10 | 0.953 | > 10 | 0.988 | > 20 | 0.481 | 222 | 0.895 | > 1.02 | 0.952 | > 20 | 0.988 | > 10 | 0.988 | > 5.12 | 0.979 | > 10.2 | 0.972 | > 1 | – | –
EPLC-272H (lung squamous cell carcinoma, adherent) | 0.963 | > 10 | 0.846 | 8.73 | 0.908 | > 20 | 0.825 | 2830 | 0.605 | 0.129 | 0.377 | 0.547 | 0.982 | > 10 | 0.891 | > 5.12 | 0.765 | 4.23 | 0.978 | > 1 | – | –
G-MEL (melanoma, adherent) | 0.751 | 3.26 | – | – | 0.968 | > 20 | 0.851 | 3000 | 0.45 | 0.0469 | 0.227 | 0.203 | 0.901 | > 10 | 0.715 | 1.29 | 0.775 | 4.01 | 0.981 | > 1 | – | –
GP5d (large intestine, adherent) | 0.99 | > 10 | 0.987 | > 10 | 0.958 | > 20 | 0.652 | 628 | 0.455 | – | 0.839 | 11.6 | – | – | 0.918 | > 5.12 | 0.853 | 6.75 | 0.99 | > 1 | – | –
H2803 (mesothelioma, adherent) | 0.983 | > 10 | 0.981 | > 10 | 0.892 | > 20 | 0.455 | 185 | 0.838 | 0.863 | 0.645 | 3.37 | – | – | 0.971 | > 5.12 | 0.794 | 5.62 | 0.983 | > 1 | – | –
H2804 (mesothelioma, adherent) | 0.972 | > 10 | 0.984 | > 10 | 0.967 | > 20 | 0.459 | 191 | 0.462 | 0.0499 | 0.736 | 6.36 | – | – | 0.985 | > 5.12 | 0.747 | 3.56 | 0.984 | > 1 | – | –
Hs940-T (melanoma, adherent) | 0.974 | > 10 | – | – | 0.983 | > 20 | 0.327 | 73.7 | 0.547 | 0.0884 | 0.621 | 2.9 | – | – | 0.984 | > 5.12 | 0.607 | 1.34 | 0.981 | > 1 | – | –
Hs-445 (Hodgkin lymphoma, suspension) | 0.773 | 3.6 | – | – | 0.912 | > 20 | 0.753 | 1250 | 0.35 | 0.0254 | 0.594 | 2.21 | – | – | 0.958 | > 5.12 | 0.718 | 2.5 | 0.988 | > 1 | – | –
IST-MES1 (mesothelioma, adherent) | 0.959 | > 10 | 0.98 | > 10 | 0.911 | > 20 | 0.737 | 1190 | 0.682 | 0.207 | 0.943 | > 20 | – | – | 0.987 | > 5.12 | 0.786 | 4.47 | 0.983 | > 1 | – | –
LB2241-RCC (kidney, adherent) | 0.957 | > 10 | 0.886 | > 10 | 0.977 | > 20 | 0.564 | 383 | 0.708 | 0.268 | 0.982 | > 20 | 0.893 | > 10 | 0.975 | > 5.12 | 0.955 | > 10.2 | 0.975 | > 1 | – | –
LS-123 (large intestine, adherent) | 0.98 | > 10 | 0.966 | > 10 | 0.963 | > 20 | 0.808 | 2950 | 0.345 | 0.0205 | 0.572 | 2.1 | 0.965 | > 10 | 0.927 | > 5.12 | 0.896 | > 10.2 | 0.979 | > 1 | – | –
NCI-H196 (small cell lung carcinoma, adherent) | 0.981 | > 10 | 0.972 | > 10 | 0.969 | > 20 | 0.553 | 351 | 0.869 | 1.02 | 0.929 | > 20 | – | – | 0.954 | > 5.12 | 0.859 | 9.08 | 0.982 | > 1 | – | –
NCI-H292 (lung adenocarcinoma, adherent) | 0.948 | > 10 | 0.918 | > 10 | 0.83 | 16.4 | 0.396 | 122 | 0.474 | 0.0534 | 0.414 | 0.692 | – | – | 0.52 | 0.366 | 0.979 | > 10.2 | 0.976 | > 1 | – | –
NCI-H441 (lung adenocarcinoma, adherent) | 0.977 | > 10 | 0.938 | > 10 | 0.964 | > 20 | 0.657 | 817 | 0.419 | 0.035 | 0.98 | > 20 | 0.98 | > 10 | 0.966 | > 5.12 | 0.966 | > 10.2 | 0.977 | > 1 | – | –
NCI-H1915 (large cell lung carcinoma, adherent) | 0.986 | > 10 | 0.864 | 8.96 | 0.927 | > 20 | 0.768 | 1520 | 0.869 | 0.971 | 0.711 | 5.01 | – | – | 0.891 | > 5.12 | 0.853 | 8.21 | 0.986 | > 1 | – | –
NCI-H2122 (lung adenocarcinoma, adherent) | 0.987 | > 10 | 0.911 | > 10 | 0.984 | > 20 | 0.283 | 63.8 | 0.377 | 0.0301 | 0.951 | > 20 | – | – | 0.967 | > 5.12 | 0.909 | > 10.2 | 0.988 | > 1 | – | –
SW626 (ovary, adherent) | 0.961 | > 10 | 0.925 | > 10 | 0.941 | > 20 | 0.785 | 2060 | – | – | 0.452 | 0.901 | 0.976 | > 10 | 0.793 | 2.84 | 0.891 | > 10.2 | 0.981 | > 1 | 0.736 | 0.339
SW872 (soft tissue, adherent) | 0.985 | > 10 | 0.896 | > 10 | 0.98 | > 20 | 0.635 | 567 | 0.618 | 0.13 | 0.871 | 15.8 | – | – | 0.987 | > 5.12 | 0.94 | > 10.2 | 0.985 | > 1 | – | –
SW1573 (lung adenocarcinoma, adherent) | 0.937 | > 10 | 0.939 | > 10 | 0.974 | > 20 | 0.723 | 1360 | – | – | 0.853 | > 20 | 0.961 | > 10 | 0.981 | > 5.12 | 0.908 | > 10.2 | 0.977 | > 1 | 0.685 | 0.249
TE-1 (oesophagus, adherent) | 0.922 | > 10 | 0.849 | > 10 | 0.982 | > 20 | 0.631 | 633 | – | – | 0.866 | > 20 | 0.972 | > 10 | 0.981 | > 5.12 | 0.904 | > 10.2 | 0.97 | > 1 | 0.586 | 0.115
TK10 (kidney, adherent) | 0.795 | 5.75 | 0.914 | > 10 | 0.887 | > 20 | 0.555 | 365 | – | – | 0.518 | 1.42 | 0.957 | > 10 | 0.811 | 3.44 | 0.788 | 5.55 | 0.979 | > 1 | 0.597 | 0.122
TOV-112D (ovary, adherent) | 0.956 | > 10 | 0.902 | > 10 | 0.949 | > 20 | 0.3 | 68.2 | – | – | 0.141 | 0.0927 | 0.973 | > 10 | 0.899 | > 5.12 | 0.814 | 5.64 | 0.981 | > 1 | 0.641 | 0.154
UACC-62 (melanoma, adherent) | 0.977 | > 10 | 0.936 | > 10 | 0.978 | > 20 | 0.819 | 2240 | – | – | 0.792 | 8.96 | 0.988 | > 10 | 0.973 | > 5.12 | 0.987 | > 10.2 | 0.987 | > 1 | 0.748 | 0.317
